Screen size: about 150,000 compounds; about 540 (0.36%) showed an effect of 50% or more. The list shows a part of the results.

In this test the test system is Plasmodium falciparum. The experiment in a line: Primary screen in NF54 nanoGlo assay, in single point, at 2uM, 72h; a lower Z score goes with more inhibition. Format: functional, Erythrocyte. To be noted: timepoint 72 hour.
For the compound `Cc1ccc(C(=O)N(CC2CC2)CC2CN(CC(O)COc3ccccc3C)CCO2)cc1` (stereo not drawn), the “% Inhibition” value is reported as -6% and the Z score is on record as 0.73.
For the compound `COc1ccc(N2CCN(C(=O)CN3CCC(c4nc(C)no4)CC3)CC2)cc1`, the “% Inhibition” value is 0% and the Z score turned out to be 0.02.
In the case of `CO[C@H]1[C@H](NC(=O)c2cccs2)c2ccccc2C12CCN(Cc1cccc3cccnc13)CC2`, the “% Inhibition” value is on record as 5% and the Z score is -0.62.
In the case of `Cc1nnsc1C(=O)Nc1cnc(-n2nc(C)c(C)c2C)nc1`, the “% Inhibition” value is -2% and the Z score is 0.38.
On to `CCOC(=O)N1CCN(Cc2ccc(N(C)C)nc2)CC1`, for which the “% Inhibition” value is reported as -10% and the Z score was found to be 1.
For the compound `CC1CC2CCCCC2N1C(=O)CCC1CCCO1` (stereo not drawn), the “% Inhibition” value turned out to be 2% and the Z score is given as -0.35.
For `CCCn1ncnc1CN1CCO[C@@H](CNc2nccn(C)c2=O)C1`, in that order: 1% and -0.09.
As to `COCCC1(CNC(=O)N2CC[C@@H](C(F)(F)F)C(C)(C)C2)CCC1`, the “% Inhibition” value is given as -15% and the Z score is given as 2.86.
For `CC(C)CCc1csc(Cn2ccc(=O)[nH]c2=O)n1`, in that order: -13% and 1.36.
For the compound `COc1ccc(CN2CCC3(CCCC3)C2)cc1F`, the “% Inhibition” value is recorded as -4% and the Z score is 0.69.
Turning to `CN(c1ccn(C)n1)S(=O)(=O)c1ccc(C(F)F)o1`, the “% Inhibition” value is 8% and the Z score was -1.36.
For `CC1CCC(OCC(=O)Nc2ccc3nncn3c2)CC1` (stereo not drawn), in that order: -37% and 4.33.
In the case of `C[C@@H]1CN(C(=O)c2nc3sccn3c2CNCCC2=CC[C@H]3C[C@@H]2C3(C)C)C[C@H](C)O1`, the “% Inhibition” value is 0% and the Z score is listed as -0.05.
The like results for `Brc1cncc(NCc2nnc3n2CCCCC3)c1` were, in that order, -16% and 2.1.
For `Cc1cc(=O)n(Cc2nc([C@H]3CCOC3)no2)nc1C`, the “% Inhibition” value was -7% and the Z score was determined as 1.06.
For the compound `CN(Cc1ccoc1)C(=O)NC1CCCC1`, the “% Inhibition” value is given as 4% and the Z score is reported as -0.73.
With `Cn1cccc1CCC(=O)NCCc1nccs1`, the “% Inhibition” value is reported as -9% and the Z score is 1.19.
Regarding `O=C(Nc1ccccc1C(=O)Nc1nnc(C2CC2)s1)c1ccc(Cl)cc1Cl`, the “% Inhibition” value stood at 0% and the Z score was 0.02.
On to `Nc1nc(C(=O)N[C@H]2CCCN(C3CCCC3)C2)cs1`, for which the “% Inhibition” value was found to be 11% and the Z score was -2.01.
For `CCc1ccc(CNC(=O)c2ccc(-c3cccnc3)nc2)cc1`, in that order: -29% and 5.54.
`C=CC1(CC(=O)N2CCN(S(=O)(=O)CC)C[C@H]2C)CCCCC1`: the “% Inhibition” value was -9% and the Z score amounted to 1.15.
Take `CCC(C)c1ccc(O[C@@H]2O[C@@H]3COC(c4ccccc4)O[C@H]3[C@H](O)[C@H]2NC(C)=O)cc1` (stereo partly drawn): the “% Inhibition” value is listed as -7% and the Z score was 1.06.
As for `Cc1ccccc1S(=O)(=O)N1CCC2(CCC(=O)N(C(C)C)C2)CC1`, the “% Inhibition” value is recorded as -14% and the Z score amounted to 2.02.
Consider `CCN(C)C(=O)CNc1ncc(F)cn1`, for which the “% Inhibition” value is recorded as -14% and the Z score came to 1.17.

Usually % Inhibition stands for the drop in the measured response relative to a control, in per cent.

The values above are taken from ChEMBL document CHEMBL4888484, “Replenishing the malaria drug discovery pipeline: Screening and hit evaluation of the MMV Hit Generation Library 1 (HGL1) against asexual blood stage Plasmodium falciparum ,using a nano luciferase reporter read-out” (2022).
